For this test, the target named is T1, hBMP-9 (human, UniProt Q9UK05 320-429).
T1 construct: also called human BMP-9
T1 sequence (looked up): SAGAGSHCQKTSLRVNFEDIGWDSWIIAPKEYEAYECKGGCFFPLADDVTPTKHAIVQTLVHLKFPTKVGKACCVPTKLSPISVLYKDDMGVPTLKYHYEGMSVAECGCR
Nature of the test: SPR kinetics, captured construct. The procedure: BMP-9 binding to captured CHO-cell-derived proteins was assessed at ligand concentrations of 0.0195-0.625 nM in two-fold increments. RU, response units.

The values that follow come from patent US20150307588A1 (ACCELERON PHARMA, published 2015).

B1: hENG(26-346)-hFc (Fc fusion)
chain: ETVHCDLQPVGPERDEVTYTTSQVSKGCVAQAPNAILEVHVLFLEFPTGPSQLELTLQASKQNGTWPREVLLVLSVNSSVFLHLQALGIPLHLAYNSSLVTFQEPPGVNTTELPSFPKTQILEWAAERGPITSAAELNDPQSILLRLGQAQGSLSFCMLEASQDMGRTLEWRPRTPALVRGCHLEGVAGHKEAHILRVLPGHSAGPRTVTVKVELSCAPGDLDAVLILQGPPYVSWLIDANHNMQIWTTGEYSFKIFPEKNIRGFKLPDTPQGLLGEARMLNASIVASFVELPLASIVSLHASSCGGRLQTSPAPIQTTPPTG[letters of human IgG1 Fc and a few adjoining residues omitted]
As to B1, the “fold decrease in dissociation rate against the full-length construct hENG(26-586)-hFc” value was 10 fold.
